This passage reports self-cleavage results from the RNAGym collection of RNA variant scans (doi:10.1093/nar/gkz1192).

The labels stand for the following.
B1: CPEB3 Ribozyme (parent)
chain: UAACAGGGGGCCACAGCAGAAGCGUUCACGUCGCAGCCCCUGUCAGAUUCUGGUGAAUCUGCGAAUUCUGCUGUAUAUCUC

Read counts are not given, so values of variants with three or more changes are uncertain.

In the data set the parent is B1. In words: self-cleavage, relative activity (ratio to wild type); higher = more cleavage; in vitro, sequencing. The method, boiled down:
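After error-prone PCR and barcoding, CPEB3 ribozyme mutant libraries were transcribed with T7 RNA polymerase at 37°C for 5 hours, then given 15 min with DNase I before an EDTA stop, and they cleaved during both steps. Reverse transcription with template switching preceded Illumina sequencing. Relative activity divides a variant's cleaved/total read fraction by the unmutated ribozyme's. At least 5 reads were required per variant, and three batches were averaged.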
For the variant UAACUGGGGGCCACAGCAGAAGCGUUCACGUCGCAGCCCCCGUCUGAUUCCUGUGAAUCUGCGAAUUCUGCUGUAUAUCUC, the self-cleavage was 0.69.

Take UAACUGGGGGCCACAGCAGAAGCGUUCACGACGCAGCCCCUGUCGGACUCUGGUGAAUCUGCGGAUUCUGCUGUAUAUCUC: the self-cleavage amounted to 0.04.

UAACUGGGGGCCACAGCAGAAGCGUUCACGUCGCAGCCCCAGUCAGAUUCUGGUGUAUCUGCGAGUUCUGCUGUAUAUCUC: the self-cleavage came out at 0.11.

As to UAACUGGGGGCCACAGCAGAAGCGUUCACGUCGCAGCCCCUGACAGAUACUGGUGAGACUGCGAAUUCUGCUGUAAAUCAC, the self-cleavage was determined as 0.32.

As to UAACUGGGGGCCACAGCAGAAGCGUUCACGGCGCAGCCCCAGUCAGAUUCUGGUGAAUCUGCGAAUUCUGCUGUAUAUCUC, the self-cleavage is 0.38.

With UAACUGGGGGCCACAGCAGAAGCGUUCACGUCGCAGCCCCUGACAGAUUCUGGUGAAUCUGCGAAUUCUGCUGUGUAUCUC, the self-cleavage is 1.02.

With UAACUGGGGGCCACAGCAGAAGCGUUCACGUCGCAGCCCCUGUCAGACUCUGGUGAAUCCGCGAAUUCUGCUGUAUAACUC, the self-cleavage is 0.19.

Turning to UAACUGGGGGCCACAGCAGAAGCGUUCACGUCGCAGCCCCCGUCAGAUUCUGGUGAAUCUGCGAGUUCUGCUGUAUAUCUC, the self-cleavage is 0.73.

For the variant UAACUGGGGGCCACAGCAGAAGCGUUCACGUCGCAGCCCCUGCCAGAUUCUGGUGAAUCUGCGAAUUCCGCUGUAUAUCUC, the self-cleavage is 0.33.

In the case of UAACUGGGGGCCACAGCAGAAGCGUUCACGUCGCAGCCCCCGUCAGAUUCUGGUGAGUCUGCGAAUUCUGCUGUAUAUCUC, the self-cleavage came out at 0.99.

On to UAACUGGGGGCCACAGCAGAAGCGUUCACGUCGCAGCCCCUGCCAGACUCUGGAGGAUCCGCGAAUUCUGCCGUAUAUCUC, for which the self-cleavage is 0.33.

For UAACUGGGGGCCACAGCAGAAGCGUUCACGCCACAGCCCCUGUCAGAUUCUGGUGAAUCUGCGAAUUCUGCUGUAUAUCUC, the self-cleavage is 0.24.

Take UAACUGGGGGCCACAGCAGAAGCGUUCACGUCGCAGCCCCUGUCAGAUACCGGUGAAUCUGCGAAUUCUGCCGUAUAUCUC: the self-cleavage worked out at 1.07.

For UAACUGGGGGCCACAGCAGAAGCGUUCACGGCGCCGCCCCUGUCAGAUUCUGGUGAAUCUGCGAAUUCUGCUGUAUAUCUC, the self-cleavage came to 0.49.

Regarding UAACUGGGGGCCACAGCAGAAGCGUUCACGUCGCAGCCCCCGUCAGAUUCUGGUGAAUCUGCUAAUUCCGCUGUAGUUCUC, the self-cleavage stood at 0.63.

As for UAACUGGGGGCCACAGCAGAAGCGUUCACGUCGCAGCCCCUGUCAGACUGUGGUGAAUCCGCGAAUUCUGCUGUAUAUCUC, the self-cleavage was 0.18.

On to UAACUGGGGGCCACAGCAGAAGCGUUCACGUCGCAGCCCCCGUCAGAUUCAGGUGAAUCUGCGAAUUCUGCUGUAUAUCUC, for which the self-cleavage stood at 0.83.

For UAACUGGGGGCCACAGCAGAAGCGUUCACGUCGCAGCCCCAGUCAGAUUCUGGUGAAUCUGCGGAUUCUGCUGUAUAUCUC, the self-cleavage was 0.29.

Consider UAACUGGGGGCCACAGCAGAAGCGUUCACGUCGCAGCCCCAGUCAGAUUCUGGUGAAUCUGCGAUUUCUGCUGUAUAUCUC, for which the self-cleavage worked out at 0.19.

As to UAACUGGGGGCCACAGCAGAAGCGUUCACGUCGCAGCCCCCGUCAGAUUCUGGAGAAUCUGCGAAUUCUGCUGUAUAUCUC, the self-cleavage was found to be 0.98.

In the case of UAACUGGGGGCCACAGCAGAAGCGUUCACGUCGCAGCCCCUGUCAGACUGUGGUGAAUCUGCGAAUUCUGCUGUAUAUCUC, the self-cleavage amounted to 0.42.

Take UAACUGGGGGCCACAGCAGAAGCGUUCACGUCGCAGCCCCUGUCAGAUCCUGGUGAGUCUGCGAAUUCUGCUGUAUAUCUC: the self-cleavage worked out at 0.51.

As to UAACUGGGGGCCACAGCAGAAGCGUUCACGUCGCAGCCCCCGUCAGAUUCUGAUGAAUCUGCGACUUCUGCUUUAUAUCUC, the self-cleavage amounted to 0.22.

For the variant UAACUGGGGGCCACAGCAGAAGCGUUCACGUCGCAGCCCCUGCCAGAUUCUGGUGAAUCUGCAAAUUCAGCUGUAUAUCUC, the self-cleavage was 0.23.

As to UAACUGGGGGCCACAGCAGAAGCGUUCACGUCGCAGCCCCUGCCAGAUUCUGGUGAAUCUGCGAAUUCUGCCGUAUAUCUC, the self-cleavage was 1.06.

As for UAACUGGGGGCCACAGCAGAAGCGUUCACGUCGCAGCCCCUGACAGAUUCUGGUGAGUCUGCGAAUUCUGCUGUAUAUCUC, the self-cleavage was 0.8.

As to UAACUGGGGGCCACAGCAGAAGCGUUCACGUCGCAGCCCCCGUCAGAUUCUGGUGAAUCUGCGAAUUCUGCUGCAUAUCUC, the self-cleavage is 1.23.

As to UAACUGGGGGCCACAGCAGAAGCGUUCACGACGCAGCCCCUGUCAGAUUCUGGUGAAUCUGCGAAUUCUGCUGUAUAUCCC, the self-cleavage came to 0.56.

For UAACUGGGGGCCACAGCAGAAGCGUUCACGUCGCAGCCCCUGCCAGAUUCUGGUGAAUCUGCGAAUUCUGCUGUAUACCUC, the self-cleavage turned out to be 0.69.

For the variant UAACUGGGGGCCACAGCAGAAGCGUUCACGUCGCAGCCCCUGUCAGAUCCUGGUGAAUCUGCGAAUUCUGCUGUGUAUCUC, the self-cleavage amounted to 0.43.

For UAACUGGGGGCCACAGCAGAAGCGUUCACGUCGCAGCCCCUGUCAGAUCCUGGUGAGUCUGCGUAUUCUGCUGUAUAUCUC, the self-cleavage was 0.07.

As to UAACUGGGGGCCACAGCAGAAGCGUUCACGUCGCAGCCCCUGGCAUAUUCUGGUGAAUCUGCGAAUUCUGCUGUAUAUCUC, the self-cleavage amounted to 0.07.

With UAACUGGGGGCCACAGCAGAAGCGUUCACGUCGCAGCCCCUGUCAGACUCUGGUGAACCUGCGAAUUCUGCUGUGUAUCUC, the self-cleavage came out at 0.08.

Turning to UAACUGGGGGCCACAGCAGAAGCGUUCACGUCGCAGCCCCAGUCAGAUUCUGGUGUAUCUGCGAAUUCUGCUGUAUAUCUC, the self-cleavage turned out to be 0.35.
